Reference: the supplement of paper PMC3334620
Over roughly 33,000 sequences, “E-score (-0.5 to 0.5)” has its median near -0.053; the highest 2% begin near 0.37. Some of the results follow.

These sequences were tested against Hap1 (UniProt P0CE41) (assay: PBM E-score (8-mer binding enrichment) (E-score (-0.5 to 0.5)); higher = stronger / more preferred TF binding; most listed sequences are background and not binding sites). Settings: protein concentration: 200 nM; construct: GST-DNA-binding domain.
Procedure, shortened: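 Universal all-10-mer Agilent arrays, double-stranded by primer extension on fresh or once-stripped slides, were probed with about 100-200 nM GST-tagged yeast transcription factors made by PURExpress. Fluorescent anti-GST detected bound protein, and masliner normalised the scans. E-scores from the Universal PBM Analysis Suite were given to each ungapped eight-base word pooled with its reverse complement.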

Chain of UniProt P0CE41 (P0CE41 whole entry, the tested form may be a part): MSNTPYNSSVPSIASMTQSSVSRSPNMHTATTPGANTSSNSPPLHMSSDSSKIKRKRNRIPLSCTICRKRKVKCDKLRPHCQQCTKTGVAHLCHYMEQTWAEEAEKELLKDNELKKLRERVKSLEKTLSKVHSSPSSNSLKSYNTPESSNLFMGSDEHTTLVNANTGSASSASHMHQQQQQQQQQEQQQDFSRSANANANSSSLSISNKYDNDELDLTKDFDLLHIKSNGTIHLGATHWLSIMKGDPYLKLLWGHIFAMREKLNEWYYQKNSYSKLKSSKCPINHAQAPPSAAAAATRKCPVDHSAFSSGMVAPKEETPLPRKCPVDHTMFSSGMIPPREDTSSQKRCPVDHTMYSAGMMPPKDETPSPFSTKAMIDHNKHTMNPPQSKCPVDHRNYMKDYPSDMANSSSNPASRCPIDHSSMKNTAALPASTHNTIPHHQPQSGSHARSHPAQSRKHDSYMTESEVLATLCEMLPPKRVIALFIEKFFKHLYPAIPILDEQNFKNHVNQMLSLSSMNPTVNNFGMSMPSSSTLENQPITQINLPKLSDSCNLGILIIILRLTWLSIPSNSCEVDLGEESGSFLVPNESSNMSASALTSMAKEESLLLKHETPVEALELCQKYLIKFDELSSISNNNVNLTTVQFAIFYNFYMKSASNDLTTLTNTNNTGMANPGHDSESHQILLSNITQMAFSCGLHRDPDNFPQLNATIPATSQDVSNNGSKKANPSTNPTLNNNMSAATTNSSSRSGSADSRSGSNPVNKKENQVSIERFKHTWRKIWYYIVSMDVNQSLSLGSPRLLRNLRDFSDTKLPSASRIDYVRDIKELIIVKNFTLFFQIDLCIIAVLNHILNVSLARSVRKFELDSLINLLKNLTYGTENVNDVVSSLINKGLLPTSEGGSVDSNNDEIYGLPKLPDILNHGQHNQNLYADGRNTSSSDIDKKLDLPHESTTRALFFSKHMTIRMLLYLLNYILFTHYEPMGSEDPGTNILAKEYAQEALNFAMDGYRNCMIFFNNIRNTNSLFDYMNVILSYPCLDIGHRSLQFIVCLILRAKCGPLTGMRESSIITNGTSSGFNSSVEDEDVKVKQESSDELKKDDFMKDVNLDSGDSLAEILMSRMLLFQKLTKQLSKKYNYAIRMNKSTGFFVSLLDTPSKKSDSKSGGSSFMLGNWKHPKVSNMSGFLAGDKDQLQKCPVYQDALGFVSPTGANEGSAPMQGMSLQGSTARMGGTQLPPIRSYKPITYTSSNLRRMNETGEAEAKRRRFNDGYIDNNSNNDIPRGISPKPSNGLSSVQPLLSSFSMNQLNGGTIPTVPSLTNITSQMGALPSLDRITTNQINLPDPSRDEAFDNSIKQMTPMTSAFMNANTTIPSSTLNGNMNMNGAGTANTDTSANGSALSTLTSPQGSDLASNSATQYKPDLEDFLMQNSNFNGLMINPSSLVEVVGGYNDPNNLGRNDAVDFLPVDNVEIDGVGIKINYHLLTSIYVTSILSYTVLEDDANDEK

Sequence	PBM E-score
AACAATCC	0.0705
CCCCTGTA	-0.154
CGGCTGTC	0.175
ACACTAAT	-0.0712
CCCGGCTC	0.201
CGAGCGTC	0.0701
CCTTCGAA	-0.0348
AGACTCTA	-0.309
ACGAATAC	-0.198
AATACGGC	-0.0214
AGTTGTGA	-0.0761
GGAAACAA	0.166
CCAAACAA	-0.131
ACACCATG	-0.233
CACGTCGC	0.0284
GCAGGAGC	-0.245
ATCCACAA	-0.242
GAGATATA	0.0589
ATTCCTTC	-0.0798
CTATCGGC	0.385
AAGGCGAC	-0.00671
CGTTGTGC	-0.0114
ACGGCAGT	-0.0387
CAGCTGAC	-0.00339
CACACTCG	0.0249

Sequence	PBM E-score
TAAGCGTA	-0.185
CGCGGTTC	0.173
GAGGCACA	-0.112
AGGAGGCG	-0.121
ACTTGTAC	-0.152
CCTCTTCC	-0.0207
GACGAACC	0.244
ATGGTAGC	-0.0641
AGGGGCTC	-0.349
TACCCTCA	-0.236
GCCCAGTA	-0.0331
AAGGTACC	-0.0829
GTTACAAA	-0.0923
CCAGCGCA	-0.0327
AAAATCTT	-0.0982
AGAGGGAG	-0.137
ACCGGCAC	0.212
ACAGTGAG	-0.291
CTTAGACC	-0.11
GGGCATTA	0.0704
CTTAGCTC	0.177
AATTACCT	-0.0895
CCTTCCAC	-0.128
GCTCACTA	-0.23
GTCGTTTA	0.0349

Sequence	PBM E-score
AGATGATG	-0.143
ACCCCAGT	0.108
CAGGTAGA	-0.15
CTTCCATA	-0.149
CAGGAAGG	-0.224
GGCCGTTA	0.333
GGGGGGCA	-0.24
TGACCCCA	-0.0637
GGCTAGCC	-0.0539
ACGGGCTG	-0.0562
AGTTAACG	0.0919
TCGGTAGA	0.177
CAGTCTAA	0.00801
GCCCCGAA	0.333
CTATGATA	-0.196
CAGCTCTA	-0.151
AAACGGGA	0.217
AAGCTCCT	-0.0999
AAAAATCG	-0.0772
GTGCAGGA	-0.113
AAGTTCCG	0.343
TACTGAGA	-0.21
ACTTCTTA	-0.131
CAGCGCGA	-0.14
CGCTACCG	0.241

Sequence	PBM E-score
AGCATAGC	-0.303
GGTCTCTA	-0.0252
GGAGTAAC	0.135
AGCGATCA	0.0638
AAAGCAGG	-0.114
GCATCCCA	-0.111
GGTTGGTA	0.0166
CATGGGGG	-0.225
TGCCGGCA	0.302
CGCTTATC	0.0559
ACCCGTAG	-0.083
ACAACCTC	-0.192
ATCGCAAG	-0.069
CAGGGGCG	-0.156
AACGACCT	-0.0938
CTGTGTGA	-0.133
CATTGCGG	0.0607
TTCATGAA	-0.119
GCGTGTGA	-0.0897
ATTGCCGA	0.375
AGCCTGCA	-0.152
CTATATAG	-0.343
CCAATTTA	0.0899
CTTCCCCA	-0.254
AGAATGGA	-0.0471

Sequence	PBM E-score
GGTGTACA	0.0116
CTAAAGTA	-0.122
AACGCCTC	-0.166
CCAGTAAC	0.0445
TCTGGACA	-0.102
ACTGTCTC	-0.052
ACTTAAGT	0.0305
ACAGAGCG	-0.177
ATTGTGCG	-0.041
AGGATTCG	0.0831
AGCTTCGA	-0.0439
CATGAGTA	-0.0279
CCCGTCTA	-0.0612
GAGGGGAC	-0.135
CGATTAAC	0.122
CATTACCG	0.198
ACAGACCG	0.246
ACACATCA	-0.136
AATCATGT	-0.268
GGTCCTCA	0.0281
AATGGCAG	-0.0667
AGGTGACA	-0.116
ACATAACA	0.00863
ATGCCTTA	-0.338
ATATTTGA	-0.19

Sequence	PBM E-score
AGTCACCA	-0.184
GAGTTTGC	0.105
ACGGCCCT	-0.0855
ATGGTGCG	-0.158
CTAAGCTC	-0.0736
CACTTAAG	0.103
GCCCATGA	-0.192
GCACGCCC	0.0485
CTATCTTA	0.105
GCTAAATA	-0.226
CCGGGTGC	0.32
CAAATGTA	0.132
CTCAACAG	-0.252
AGGTTACT	-0.02
GTCAGAAC	0.0848
CAATATCA	-0.106
CAGCGGAA	0.139
GGAGTTAC	0.393
GACGATTA	-0.0289
CCGACCCG	0.305
CACCCCGG	0.264
GAAGACGC	-0.0458
AATCACAC	-0.0432
TAGGCGCA	-0.0803
CCATGGCA	-0.014

Sequence	PBM E-score
GCGGAGTA	0.25
ACCCGGGA	0.328
CACAATCG	0.0263
GAAACAGC	0.0614
CCGCTAAC	0.291
ATCACAGC	-0.115
AATGGGCC	0.0191
CCCTGATC	0.0522
CTGTCATA	-0.37
ACCGGTCG	0.289
CGAGAAGC	0.0864
CCCATCAC	-0.12
CCTGCTAC	-0.115
ACTCCGCA	0.156
ACAGAACA	-0.0684
TTATCCAA	-0.0467
GACGGAAC	0.174
AGCAGTGG	-0.183
AGGTCTGA	-0.197
CTGCGACC	-0.148
AACGCCGA	0.447
AGCGGAAC	0.243
CTAGCTTA	-0.11
GGACAATA	0.225
ATAGCGGA	0.363

Sequence	PBM E-score
AGAAAAAT	-0.0988
ACTCGAGG	-0.0247
CCTTGCCG	0.159
GACAGCGC	0.0086
AATGATCC	0.0779
AGAACAAG	-0.155
AAGTAGCT	-0.28
GTTGTATA	-0.112
AAGAGGCA	-0.125
CCAAGCAA	-0.255
CACGTGCC	-0.165
CTGTTTCC	0.117
AGTTAGAG	-0.104
GTTAGTGA	-0.144
AGAATTGA	-0.0941
ACGTGTGC	-0.301
AAAGTCGG	0.113
GCCATAGC	-0.00164
CCTGTAAC	-0.125
AAATCATC	-0.0641
AGACTCTG	-0.283
AAAAATGT	0.0967
CCCAACAC	-0.169
ACTATAAT	-0.0751
CACTATGA	-0.212

Sequence	PBM E-score
AGGAAATC	0.117
ACGTTGCG	0.0201
CCACAAAA	-0.0826
CAGATTCA	-0.164
ACCCTTCC	0.0954
GATTCTGC	0.0958
GTGGTAAA	-0.0214
GCGATCGA	-0.0223
ATCAAACG	-0.0377
ACTTCGGC	0.377
ATTGAAAA	-0.0505
ATCCCGAT	0.272
GCTAATTA	0.144
ATTACTGC	0.0541
GTAGAGAA	-0.0974
AGCTCCCA	-0.128
ACCGTGCA	-0.0832
AACATCTA	-0.141
AAAAACTC	0.0741
CCAGAATA	0.0162
CCAACTAA	-0.0246
CACGGTCC	0.031
CCACTTCA	-0.156
CGGAAGAC	0.231
CTTTAGCA	-0.0662

Sequence	PBM E-score
GCCTTAAA	0.165
ACATGTGG	-0.167
AAGTTGGA	-0.104
CGTTAGGA	0.204
CGGTTTAA	0.168
CACTATTA	-0.0035
CATCAGAC	-0.00431
ACGCCCAT	0.0558
ACCCATGG	-0.00358
CGATATTA	0.289
CCATGAGG	-0.0509
GCAGAAAA	0.0368
CTTTCATC	-0.119
TCATACGA	-0.121
CGCGGCCC	0.169
GAGCTGAC	0.0197
AAACAACG	0.0643
AGGCCTTG	-0.18
GAGGTCGA	-0.21
GTGGATAA	-0.0821
AGAAGCCT	-0.18
CGGTAGAG	0.23
CGGCCCGC	0.227
AGGCTGGC	-0.264
AGTCCATG	-0.117

Sequence	PBM E-score
ACCTGAAC	-0.134
GCTGATCC	0.196
AAAATATC	-0.0515
AGAATAAC	-0.0616
CGGTACAA	0.218
AAGATGGG	-0.126
CGTTCTAA	0.0112
GCCGTCGA	0.0668
TCACCCAA	-0.0125
CAACCACC	0.0746
GGCTCCCA	-0.0936
ATTGCCGC	0.0752
ATGGAGGG	-0.427
ATAGATCG	0.0518
CACGCAGC	0.0107
AATACTTG	-0.112
AGTACGTC	-0.0969
CAAGTTAG	-0.0771
CTCTAAAA	-0.0794
GCAGCTAC	-0.0107
AAGATTTA	0.0176
AGGTCAGC	-0.205
CGCCTAAA	-0.0728
TATATCAA	-0.0594
CCCATGCG	-0.18

Sequence	PBM E-score
AGTGACCC	-0.102
ATTGATCA	-0.206
AATATCGC	0.314
CCCAAACA	-0.202
CGCGATTA	0.0933
GAGTTTCA	-0.0937
CCACGCGC	-0.0992
GCGTGTAC	0.0377
CCGTTGTA	0.239
GATTTCGC	0.204
CGCCAACC	0.16
GCATCTCC	0.124
GGTAGAAA	0.0318
ACACTCTC	0.0326
AGCGAAAC	0.113
CCGCCACA	-0.054
CTTTTTCC	0.0285
AGATATAT	0.151
AACAACCT	-0.184
AGGGTATC	-0.0283
AACACGTC	-0.0992
CCTTACAA	-0.109
AGTAGTAG	-0.151
AATATACT	-0.133
ACTTGCCC	0.0774

Sequence	PBM E-score
GGGACCAA	-0.113
GCTCAGCC	-0.175
CAAACTAA	0.0274
AAGGATTC	-0.117
CGATCCCG	0.241
TATGGTGA	-0.147
GAGGGGCC	-0.0548
CTCCGCCA	0.12
ATAAGCTC	0.146
ACACGCTG	-0.205
CGAAACCC	0.33
CATAGTTA	-0.0706
ACTTCGCT	0.0445
AGCGTGGC	-0.109
CTGTCGGC	0.331
CCAGCTGC	-0.0271
GATTTGAC	-0.144
AATCTATG	-0.102
GAGGACAA	-0.115
ATAGCCCA	-0.0975
CCCCGCGA	0.185
CCCTGACA	-0.181
CGGAGGTC	0.261
TACAACGA	-0.0607
CAATTTGA	-0.0393

Sequence	PBM E-score
GCGCGCAA	0.205
CTACTATA	0.126
ACAAGGAA	0.0242
ACAATCCC	0.254
AAGTTGGT	-0.00953
CAAGTGTA	-0.286
CTATGTGC	-0.115
CGGGCGAC	0.304
AGTCGTGA	-0.295
CCGGTCTC	0.251
AGCATGCG	-0.0823
ACTAGAGA	-0.12
AGTACTCA	-0.265
GTACCGGA	0.393
GGGGGTTA	-0.181
CGCCGTCC	0.0969
CCGGGATA	0.301
GGCGACCC	0.208
GACCATAC	0.0169
